US20240277807A1 (published 2024)

Key:
GDF11 = molecular target: T1, GDF11 (UniProt O95390 299-407); experiment: Biacore
T1 chain: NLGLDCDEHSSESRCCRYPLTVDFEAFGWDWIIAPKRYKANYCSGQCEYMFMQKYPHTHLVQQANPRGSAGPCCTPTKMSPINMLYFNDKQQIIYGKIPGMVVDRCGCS

activin A = molecular target: T2, activin A (UniProt P08476 311-426); experiment: Biacore
T2 chain: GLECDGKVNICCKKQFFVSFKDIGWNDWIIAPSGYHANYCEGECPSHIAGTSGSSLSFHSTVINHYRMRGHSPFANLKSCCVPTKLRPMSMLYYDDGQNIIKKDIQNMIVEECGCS

B1: ActRIIA-hFc (Fc fusion)
chain: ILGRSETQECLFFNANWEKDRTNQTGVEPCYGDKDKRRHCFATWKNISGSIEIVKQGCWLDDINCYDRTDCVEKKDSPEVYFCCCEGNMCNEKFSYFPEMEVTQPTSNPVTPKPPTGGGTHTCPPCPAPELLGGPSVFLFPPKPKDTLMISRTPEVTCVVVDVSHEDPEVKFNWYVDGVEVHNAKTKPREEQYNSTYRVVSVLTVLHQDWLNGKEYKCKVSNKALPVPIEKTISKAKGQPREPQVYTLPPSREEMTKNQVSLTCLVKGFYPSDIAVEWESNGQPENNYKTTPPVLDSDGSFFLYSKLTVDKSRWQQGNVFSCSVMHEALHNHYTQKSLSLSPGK
Work on B1 yielded a Kd (GDF11) of 9.96 nM and a Kd (activin A) of 0.005 nM.
